± gives the standard deviation of the averaged measurements. The list shows a part of the results.

The subject of this assay is PfAP2-LT AP2 domain (GST-tagged). Put plainly: gcPBM binding intensity (ln(normalized median fluorescence intensity)); higher = stronger DNA binding. An outline of the steps:
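For binding intensity, the highest Masliner-normalised natural-log median intensity across replicate spots of either probe orientation was taken. Protein bound to the array was stained with Alexa488 anti-GST antibody and scanned at 488 nm. The protein, GST-tagged P. falciparum DNA-binding domains from E. coli at about 25 μg on average, had been applied for 1 h to an Agilent 4 × 180k array of primer-extended double-stranded 36-bp intergenic genomic probes and negative controls.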
On to “TTAAAATTAATTCACCAGTATTAAAATAAAAACGAA [CACACA_negctrl_site1428]”, for which the “gcPBM binding intensity (ln)” value came to 8.61 ± 0.45.

In the case of “AAATAAAATTTTATGTGTACGCAAAAAGTTGTAAGC [XGTACX_site8911]”, the “gcPBM binding intensity (ln)” value stood at 8.96 ± 0.45.

On to “CATATATATATATATACACACATATATATTTTCTTT [CACACA_site1457]”, for which the “gcPBM binding intensity (ln)” value worked out at 9.22 ± 0.28. Take “AAAAAAAAAAATATCACACACACATAAATATAAACA [CACACA_site7138]”: the “gcPBM binding intensity (ln)” value stood at 9.74 ± 0.28. Consider “AAAGTAGGCTTATATGCACACTTTGAAATATTATAA [CACACA_site5117]”, for which the “gcPBM binding intensity (ln)” value amounted to 8.76 ± 0.47. With “CAATATTATATATATACACACATAATCTGTAAAAAC [CACACA_site1068]”, the “gcPBM binding intensity (ln)” value came to 9.09 ± 0.45. In the case of “ATTATACAAAATGGTAAGGAAAAGGAAATTTTTTTT [CACACA_negctrl_site1090]”, the “gcPBM binding intensity (ln)” value worked out at 8.49 ± 0.54. In the case of “TTATTTTATTTTAAAAAAAACAATATAAATTCAAAG [GTGCAC_negctrl_site57]”, the “gcPBM binding intensity (ln)” value stood at 7.98 ± 0.44. With “TATTTATAAATTTACACACACACATGGGAACATAAA [CACACA_site5111]”, the “gcPBM binding intensity (ln)” value amounted to 9.51 ± 0.18. On to “ATAAAAATTGATTATACACACGCGCACCCACAACAA [CACACA_site3536]”, for which the “gcPBM binding intensity (ln)” value was determined as 9.52 ± 0.28. For the sequence “ATGTCAAATTTTTGTGCACACATATATAGTTATTAT [CACACA_site2242]”, the “gcPBM binding intensity (ln)” value came out at 9.37 ± 0.42. With “TATATATATCAGCAATGTACACAATGCATATTATAT [XGTACX_site4836]”, the “gcPBM binding intensity (ln)” value worked out at 8.79 ± 0.36. For “TAAGGATAAATAAAATGAAATGAAATAAATAAATGA [XGTACX_negctrl_site539]”, the “gcPBM binding intensity (ln)” value was found to be 8.63 ± 0.5. As to “TTTGTTTTATGTGGTTGTACACAAATACAATTTAAA [XGTACX_site5156]”, the “gcPBM binding intensity (ln)” value was 8.38 ± 0.43.

As to “TTATAATAAATATTTATTATATATAATATATATTAC [CACACA_negctrl_site1802]”, the “gcPBM binding intensity (ln)” value turned out to be 8.49 ± 0.47. Regarding “TATATTATATATTTATGTACGTATTTGTAAAAAGAT [XGTACX_site3444]”, the “gcPBM binding intensity (ln)” value came out at 8.55 ± 0.32. In the case of “TTTTTTATTAAATATATATAATAATAATAATTTGTA [CACACA_negctrl_site1719]”, the “gcPBM binding intensity (ln)” value came out at 8.03 ± 0.33.

Regarding “GTTTCCTTAATATTCACACACATATCTATAATATAT [CACACA_site6959]”, the “gcPBM binding intensity (ln)” value came to 9.23 ± 0.4. In the case of ATAATAATTATATCAGTGCGCATATATATTTATTTA, the “gcPBM binding intensity (ln)” value was 8.93 ± 0.4. On to “TCATAGCACAAAAAATGTACTTATTATTTAATATTT [XGTACX_site5687]”, for which the “gcPBM binding intensity (ln)” value came to 8.47 ± 0.43. Turning to “ATGTGATAATTTAATAGTACATAACAGTTTAACAAT [XGTACX_site5854]”, the “gcPBM binding intensity (ln)” value amounted to 8.99 ± 0.51. As for “CAAACAAATTGTGAAACACACATATTTATATTTATA [CACACA_site7030]”, the “gcPBM binding intensity (ln)” value was found to be 8.66 ± 0.44.

“TTATAAAATAAACTTACACACATGAAATATTATAGT [CACACA_site7000]”: the “gcPBM binding intensity (ln)” value turned out to be 8.91 ± 0.38. Regarding “TTTATATGCAATTAAGTGCATAAGAAAAAAAAAGGA [GTGCAC_site9966]”, the “gcPBM binding intensity (ln)” value turned out to be 8.6 ± 0.42. Regarding “TATCAGTATACAACAACACACATAATGTTTGTCATC [CACACA_site2980]”, the “gcPBM binding intensity (ln)” value turned out to be 9.06 ± 0.42. Take “CACTTAAAAAAAATACGTACACATATATATATATAT [XGTACX_site2054]”: the “gcPBM binding intensity (ln)” value amounted to 9.58 ± 0.28. The same measure for “CAAAAATAAATATAAACACACAATAAATAAATAAAT [CACACA_site891]”: 9.12 ± 0.46; for “TGAATTGTAATTTATAATATACGTGGTTTCTACTTA [CACACA_negctrl_site559]”: 8.66 ± 0.44; for “ATTTAATAACGGCATGCATGTCCTTATATAAATTTA [TGCATGCA_site1012]”: 8.77 ± 0.37. Consider “TATTATATATTATATAGTACATATTTATGTAAGAGG [XGTACX_site3099]”, for which the “gcPBM binding intensity (ln)” value is 8.85 ± 0.54. Take “CCTTACCAAATAATATGTACACATTTAATGTTATAT [XGTACX_site7840]”: the “gcPBM binding intensity (ln)” value was found to be 8.84 ± 0.35. As for “CAAAATTAATAAGTCACACACACATATATAATATAT [CACACA_site798]”, the “gcPBM binding intensity (ln)” value was 9.57 ± 0.33. The same measure for “TATAAAAATATATGCACACAAATAAAAAATTATATA [CACACA_site3629]”: 8.96 ± 0.47; for “TATATTTATACAATATGTACATATTATATATATATA [XGTACX_site3098]”: 8.78 ± 0.33.

Turning to “ATGGTATCTTTTAGAAGTACATCATGATAATAATTT [XGTACX_site5544]”, the “gcPBM binding intensity (ln)” value was 8.54 ± 0.42. With “GATCATAATATTTAAAAGAATATATATAAAAAGGAA [XGTACX_negctrl_site310]”, the “gcPBM binding intensity (ln)” value amounted to 8.6 ± 0.45.

As for “GTATTAATTTATATATGTACATATGTGATATATATA [XGTACX_site5825]”, the “gcPBM binding intensity (ln)” value amounted to 8.86 ± 0.28.

“TGGAATAAAAAAAGGAGTACAATTAATTATTCTTAA [XGTACX_site8299]”: the “gcPBM binding intensity (ln)” value was determined as 8.48 ± 0.45. TATATATATATATATGTGCACATATTTATATGTTTT: the “gcPBM binding intensity (ln)” value was 9.65 ± 0.071. As for “GAAATTAAATGACATACACACTATATTATATATTTT [CACACA_site5693]”, the “gcPBM binding intensity (ln)” value stood at 8.81 ± 0.4.

Turning to “TAGATAGATTAAAATACATGCATATTATTAAAAAAT [TGCATGCA_site739]”, the “gcPBM binding intensity (ln)” value is 8.78 ± 0.41. “CACCCATACACATACAAACACACATTCTATATATAT [CACACA_site1600]”: the “gcPBM binding intensity (ln)” value came out at 9.28 ± 0.46. Regarding “AGCATAAAAATGATATGTACATATATATATATATAT [XGTACX_site2836]”, the “gcPBM binding intensity (ln)” value is 9.805 ± 0.035. The same measure for “CATACATACATACATACACACATACATATGTATATA [CACACA_site7216]”: 9.38 ± 0.33. On to “AATCATAAACATTATGCACACAAAAATAAAAAAAAA [CACACA_site8289]”, for which the “gcPBM binding intensity (ln)” value stood at 9.16 ± 0.45. The same measure for “TATCTTCAATGTGAAAGTACTTAAATTGTTATAAAA [XGTACX_site2586]”: 8.38 ± 0.3. “ATTTAATGTATTTTGCGTACGAATTATTTTATTTCA [XGTACX_site7331]”: the “gcPBM binding intensity (ln)” value was 9 ± 0.47. For “TATCAAAAAAAAAGTAGTACGATAATAGTTTCCCAA [XGTACX_site1812]”, the “gcPBM binding intensity (ln)” value was 8.73 ± 0.4.

Take “AAAAAAAAAACAAATGCATGTAATATAAGAATTACA [TGCATGCA_site908]”: the “gcPBM binding intensity (ln)” value worked out at 8.74 ± 0.52. As for “ACTTATAATATTTAGTGTACATATTGTGACTAATAC [XGTACX_site1508]”, the “gcPBM binding intensity (ln)” value was found to be 8.87 ± 0.46. The same measure for “TATTTATAAATTTACACACACACATGTGAACATAAA [CACACA_site1909]”: 9.29 ± 0.29; for “ATTTTAAAAAATTAATGTACTTAATTAATACTGAAA [XGTACX_site7702]”: 8.14 ± 0.43.

In the case of “ATTTGTTCATTTGGTTGTACATAATTTATTTTTATA [XGTACX_site785]”, the “gcPBM binding intensity (ln)” value amounted to 8.86 ± 0.44. In the case of “ATTTCTTTAATATACACACACCAAAACAAAAAAAAA [CACACA_site6416]”, the “gcPBM binding intensity (ln)” value is 9.11 ± 0.38. Regarding “TTTTCATTTTTTTTTTTTTTTTTTTTTCTTTTTTTT [CACACA_negctrl_site1312]”, the “gcPBM binding intensity (ln)” value stood at 8.43 ± 0.61. With “AAAAACAATCATTTTAAATAAAAATCTCTAATTTAA [GTGCAC_negctrl_site138]”, the “gcPBM binding intensity (ln)” value amounted to 8.2 ± 0.45.

(Values after the supplement of paper PMC11417369.)
